Screen size: about 150,000 compounds; about 540 (0.36%) showed an effect of 50% or more. This is one part of the list.

The test has as its system Plasmodium falciparum. The test can be described thus: Primary screen in NF54 nanoGlo assay, in single point, at 2uM, 72h; a lower Z score goes with more inhibition. In kind it is functional, Erythrocyte. Particulars: timepoint 72 hour.
With `c1ccc([C@@H]2CN(C3CC3)CC3(CCN(Cc4ccccn4)CC3)C2)cc1`, the “% Inhibition” value was -10% and the Z score is given as 1.74.

`O=c1ccc(-c2ccccc2)nn1CN1CCCCCC1`: the “% Inhibition” value is -16% and the Z score stood at 1.99.

Take `C[C@H]1CCCN1S(=O)(=O)Nc1ccc(-n2ncn(C)c2=O)cc1`: the “% Inhibition” value is listed as -13% and the Z score is given as 2.41.

Consider `O=C(COc1ccc(S(=O)(=O)N2CCCCC2)cc1)NC1CCCCC1`, for which the “% Inhibition” value is recorded as -9% and the Z score was determined as 1.29.

As for `COc1cccc(S(=O)(=O)N2CCC(n3c(C4CC4)nn(C)c3=O)CC2)c1`, the “% Inhibition” value was found to be 3% and the Z score is -0.42.

On to `CCOc1ccccc1CNC(=O)[C@@H](C)C1CCN(C(=O)c2cc3ccccc3[nH]2)CC1`, for which the “% Inhibition” value turned out to be 19% and the Z score is listed as -1.78.

With `O=C1[C@@H](OC2CCN(Cc3cc(F)ccc3F)CC2)CCN1C1CCCC1`, the “% Inhibition” value was -15% and the Z score is recorded as 2.49.

Take `O=C(c1ccc(S(=O)(=O)c2cccc(F)c2)cn1)N1CCNCC1`: the “% Inhibition” value is on record as -19% and the Z score is given as 2.53.

Consider `Cc1cnc(NC(=O)c2cn[nH]c2C)[nH]1`, for which the “% Inhibition” value was 2% and the Z score is listed as -0.17.

For the compound `O=S(=O)(CCN1CCc2sccc2C1)Cc1ccccc1`, the “% Inhibition” value is listed as -7% and the Z score stood at 0.7.

Regarding `Cc1nc2cc(C(=O)N3CCC(N4CCc5ccccc5C4)CC3)ccc2s1`, the “% Inhibition” value came out at 0% and the Z score was -0.07.

In the case of `COc1ccc(CN2C(=O)N[C@@H](CC(=O)N[C@H](CO)Cc3ccccc3)C2=O)cc1`, the “% Inhibition” value is reported as -14% and the Z score is reported as 1.83.

Consider `CN1CCN(c2cc(-c3ccccc3C(=O)O)nc(N)n2)CC1`, for which the “% Inhibition” value is -7% and the Z score stood at 1.29.

Consider `O=C(NCc1cn[nH]c1)Nc1ccccn1`, for which the “% Inhibition” value is given as -3% and the Z score came to 0.66.

`CCN(CC)CCNC1=Nc2ccccc2CCC1`: the “% Inhibition” value was 10% and the Z score is recorded as -1.57.

As to `Cc1cc2ncn([C@@H](C)c3nc(-c4ccnn4C)cs3)c2cc1C`, the “% Inhibition” value is on record as -11% and the Z score is 2.13.

As to `O=C(NC[C@H](OCCO)c1cccs1)c1ccsc1`, the “% Inhibition” value is -3% and the Z score was 0.51.

Regarding `O=C(Nc1cn[nH]c1)C(=O)Nc1ccc(F)cc1Cl`, the “% Inhibition” value was -1% and the Z score amounted to 0.15.

On to `CCOc1ccc(NC(=O)Cn2cnc3c(-c4cccc(OC)c4)cn(C)c3c2=O)cc1`, for which the “% Inhibition” value was 40% and the Z score was -5.73.

Consider `CC[C@]1(C(=O)O)CCCN(C(=O)CC2CCCC2)C1`, for which the “% Inhibition” value is reported as -6% and the Z score worked out at 1.07.

`Cc1ccccc1C1CC1NC(=O)c1cccc(-n2c(C)c[nH]c2=O)c1` (stereo not drawn): the “% Inhibition” value was -7% and the Z score was determined as 0.96.

As to `C[C@H](NCCn1cccn1)c1ccc(-c2cccnc2)cc1`, the “% Inhibition” value is recorded as -4% and the Z score was found to be 0.62.

`COc1ccc(NC(=O)[C@H](C(C)C)N(Cc2ccc(C)cc2)C(=O)Cn2nnc3ccccc32)c(OC)c1`: the “% Inhibition” value came to 14% and the Z score was -1.72.

With `CC[C@@H](CC#N)NC(=O)c1ccoc1Cl`, the “% Inhibition” value is reported as -8% and the Z score worked out at 1.12.

For the compound `CC(C)NC(=O)N1C[C@H](c2nc(-c3ccc(F)cc3)no2)C2(CCOCC2)C1`, the “% Inhibition” value is reported as -4% and the Z score worked out at 0.83.

Turning to `O=C(Cn1c(-c2cccs2)cc2ccccc21)N1CCOCC1`, the “% Inhibition” value was 2% and the Z score is reported as -0.24.

As to `Cc1nn(C)c2nc(-c3ccccn3)nc(N(C)CCc3ccccn3)c12`, the “% Inhibition” value is 1% and the Z score was -0.22.

With `CCCCn1ncc(NC(=O)N2CCC[C@@]23CCNC3)c1C(C)C`, the “% Inhibition” value stood at 5% and the Z score is reported as -0.61.

For the compound `Cc1cnc(N2C[C@H](OC(C)C)[C@@H](O)C2)nc1N(C)C`, the “% Inhibition” value is -5% and the Z score was determined as 0.46.

For `CC1(C)CN(Cc2ccc(F)cc2)CCN1C(=O)Cn1ncnn1`, the “% Inhibition” value is -13% and the Z score was 2.15.

With `COCCOCc1nc([C@H]2CCN(S(=O)(=O)c3cccc4nsnc34)C2)no1`, the “% Inhibition” value is given as -7% and the Z score is reported as 1.39.

For `CN1C[C@]2(CCN(c3nnc(C4CCC4)o3)C2)OC1=O`, the “% Inhibition” value was -25% and the Z score turned out to be 2.46.

For `CC(=O)N1CCn2c(nnc2[C@@H]2CCCN2Cc2ccccc2)C1`, the “% Inhibition” value is -25% and the Z score is recorded as 3.5.

`O=C(NC1CCC(C(=O)NCCc2cccc(O)c2)C1)OCc1ccccc1` (stereo not drawn): the “% Inhibition” value was -3% and the Z score was found to be 0.69.

As for `CC(C)c1noc(-c2ccc(N(C)CCC3(O)CCCC3)nc2)n1`, the “% Inhibition” value is reported as -7% and the Z score was found to be 0.76.

With `CN(C)CCN(CCO)C(=O)c1cc(-n2cccn2)ccc1Cl`, the “% Inhibition” value was -7% and the Z score is on record as 1.39.

With `CCCN1Cc2cccc(NS(=O)(=O)c3cnc4n3CCC4)c2C1`, the “% Inhibition” value is -5% and the Z score amounted to 0.73.

In the case of `CCc1ccc(CNCCN2CCC[C@H](CO)C2)nc1`, the “% Inhibition” value was -5% and the Z score was determined as 0.93.

Regarding `Cc1ccncc1NCc1cnnn1C`, the “% Inhibition” value was -9% and the Z score was 0.86.

Consider `Cc1oc(-c2ccc(C(=O)NCc3ccccc3F)cc2)nc1CN1CCc2ccccc21`, for which the “% Inhibition” value is given as -9% and the Z score amounted to 1.37.

Take `CCc1nc2cc(-c3noc(-c4ccc(CS(=O)(=O)c5ccccc5)cc4)n3)ccc2o1`: the “% Inhibition” value is -9% and the Z score was 0.86.

For `CCCCc1nc(C)sc1C(=O)Nc1nc[nH]n1`, the “% Inhibition” value is recorded as 0% and the Z score was 0.04.

Turning to `COc1ccccc1OCC(=O)Nc1cc(C)nn1-c1nc2c(cnn2-c2cccc(C)c2)c(=O)[nH]1`, the “% Inhibition” value came to 2% and the Z score is recorded as -0.31.

Regarding `CCOC(=O)C1CCCN(CC(=O)NC2CCCCNC2=O)C1` (stereo not drawn), the “% Inhibition” value is 3% and the Z score was -0.31.

As to `CC(C)Cn1c(C[C@H]2CCN(C(=O)c3n[nH]c4ccccc34)C2)nc2cccnc21`, the “% Inhibition” value worked out at 1% and the Z score was -0.1.

Turning to `CC1CC1C(=O)NC(Cc1nccn1C)c1ccccc1` (stereo not drawn), the “% Inhibition” value is -11% and the Z score worked out at 2.17.

As to `CCOc1ccccc1CNc1nc(-c2cccc(OC)c2)no1`, the “% Inhibition” value is recorded as -13% and the Z score was 1.17.

As to `Cc1n[nH]c([C@@H]2CN(C(=O)c3ccc4ncccc4c3)C[C@H]2C(N)=O)n1`, the “% Inhibition” value is 0% and the Z score stood at 0.07.

On to `CCOC1CC(NC(=O)CS(=O)(=O)C2CCCC2)C12CCCC2` (stereo not drawn), for which the “% Inhibition” value came out at 4% and the Z score is -0.36.

In the case of `CN1CC[C@H]2CC[C@@H](C1)N2C(=O)CCOc1ccccc1`, the “% Inhibition” value is listed as -8% and the Z score worked out at 1.39.

Take `Cc1cc(OC2CCN(C(=O)c3ccc[n+]([O-])c3)CC2)nc(C)n1`: the “% Inhibition” value was -6% and the Z score was 1.06.

For the compound `Cc1cc(Cl)cc2c1NC(=O)[C@H]1CCCN1C2=O`, the “% Inhibition” value is -11% and the Z score was 2.02.

Take `Cc1ccc(OC2CCN(Cc3ccncc3)CC2)c(C(=O)N2C[C@H]3CC[C@H]2C3)c1`: the “% Inhibition” value was 9% and the Z score was -1.19.

For `O=C(CN1CCCC1)Nc1ccc(N2CCn3c(nc4ccccc43)C2)cc1`, the “% Inhibition” value is reported as 37% and the Z score was -1.11.

(Values after ChEMBL document CHEMBL4888484, “Replenishing the malaria drug discovery pipeline: Screening and hit evaluation of the MMV Hit Generation Library 1 (HGL1) against asexual blood stage Plasmodium falciparum ,using a nano luciferase reporter read-out” (2022).)
